According to PMC7819943, “Rice protein-binding microarrays: a tool to detect cis-acting elements near promoter regions in rice”:
The list shows a part of the results.

These sequences were tested against T1, OsWOX13 (Oryza sativa, UniProt Q5QMM3 1-267) (assay: protein-binding microarray (RPBM); PBS, 2% BSA, 51.3 ng/ul salmon testes DNA, 50 uM zinc acetate, 200 nM TF, 25 C, 1 h; high values mean tight binding). Settings: protein: recombinant; tags: N-terminal polyhistidine and DsRed monomer fusion (pET32a); label: CyDye5-dUTP incorporated in the synthesized complementary strand; 3' TTTTT single-stranded linker to array surface; dsDNA, one strand shown.
T1 sequence: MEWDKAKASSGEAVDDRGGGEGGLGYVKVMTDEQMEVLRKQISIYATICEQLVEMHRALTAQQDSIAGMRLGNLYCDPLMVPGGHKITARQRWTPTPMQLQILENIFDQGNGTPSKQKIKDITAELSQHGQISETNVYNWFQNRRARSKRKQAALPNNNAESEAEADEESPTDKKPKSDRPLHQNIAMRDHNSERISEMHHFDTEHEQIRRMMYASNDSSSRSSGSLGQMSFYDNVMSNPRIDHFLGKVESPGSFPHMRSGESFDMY
Method in brief: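 Using Ni–NTA, transcription factors fused N-terminally to polyhistidine and DsRed were purified after expression in E. coli BL21-CodonPlus. These were incubated at 200 nM with a blocked, double-stranded custom Agilent array for 1 h at 25 °C in a buffer containing 50 µM zinc acetate, and the array was washed. The binding signal is per-feature fluorescence intensity (arbitrary units) on an Axon 4000B scanner.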

Sequence	binding signal
GAGATTGGAAGCACCATTTGACATTACGCGCCTGATTCATCGGAGTCACCTAGTGCAG	5800 fluorescence intensity (a.u.)
TAGACTTATAACTAATTTAATTTCTATAGTTACGTTATCCCGGAGTCACCTAGTGCAG	9980 fluorescence intensity (a.u.)
ACATCAGTTCAGCTTAATTGACTTGTTCTCCATCACAAGTCGGAGTCACCTAGTGCAG	11700 fluorescence intensity (a.u.)
TTTCCGTCACATCGTTTAAATTTTAACCAAACTTTTAATTCGGAGTCACCTAGTGCAG	3420 fluorescence intensity (a.u.)
TTAGACCATCCTTAATTTTAATTATCTACATCTAACTTGTCGGAGTCACCTAGTGCAG	3280 fluorescence intensity (a.u.)
TCCTTGGAATGATTGCAAAGATAATTACGTGAGCAGGACCCGGAGTCACCTAGTGCAG	25200 fluorescence intensity (a.u.)
TAAATTGTTTTAGTCTGAGTGACGACTGCACCGTTACCAGCGGAGTCACCTAGTGCAG	3480 fluorescence intensity (a.u.)
ATAGACACACATATATAATTAGTAATATATATTGGTTCCTCGGAGTCACCTAGTGCAG	12600 fluorescence intensity (a.u.)
GTAATGTTAAAATTTTGACAATTTAACAATATTGCTAAGTCGGAGTCACCTAGTGCAG	7130 fluorescence intensity (a.u.)
TTGGGTAATTAACTCTCCCTCATTGATGCCTATTTAACACCGGAGTCACCTAGTGCAG	19200 fluorescence intensity (a.u.)
AACAGTGTAACAATGATTGATGCAATAATATATCATCTGACGGAGTCACCTAGTGCAG	25600 fluorescence intensity (a.u.)
CTCCTGCAAATGGGTTGATTTGTTTGTCTTCATACTGAATCGGAGTCACCTAGTGCAG	5210 fluorescence intensity (a.u.)
TTTCCGTCACATCATTCTAATTTTAACCAAACTTCCAATTCGGAGTCACCTAGTGCAG	4920 fluorescence intensity (a.u.)
TGTTGATGGACAGATGCATGCACCTCCCAAAATACCATCCCGGAGTCACCTAGTGCAG	22200 fluorescence intensity (a.u.)
ATAACCCGACATAATTTGAACCGGGCCAGTAAGGCTGTGGCGGAGTCACCTAGTGCAG	4110 fluorescence intensity (a.u.)
TTGAAATTAAATTTAATCAGCATAAATTACATCATTGACTCGGAGTCACCTAGTGCAG	32100 fluorescence intensity (a.u.)
GAGGTAATTTGGATAGTTATAATCAGGTCTTGAGATCTTCCGGAGTCACCTAGTGCAG	22700 fluorescence intensity (a.u.)
CCACGTCATTTGACTGGTCGAAGTTAACAGAGATGGGGTACGGAGTCACCTAGTGCAG	4540 fluorescence intensity (a.u.)
TGCTAAATTTGAAGATCTGGTCTTAATAAATACTAGTATACGGAGTCACCTAGTGCAG	3380 fluorescence intensity (a.u.)
AAATTTTAAATTTTATAACTTAATTTTGAATTCGAATTTTCGGAGTCACCTAGTGCAG	5770 fluorescence intensity (a.u.)
TTCGTCATATACGGTGGCTGATTGTTTTGACATTCGGCAACGGAGTCACCTAGTGCAG	4040 fluorescence intensity (a.u.)

Sequence	binding signal
TGTGATAGAAAATGCAGTTTTACTCAGTACTTTACCAACTCGGAGTCACCTAGTGCAG	6890 fluorescence intensity (a.u.)
AGGGAACATTCCAATCAATTATTCGGCTGCGAAAAGGCAACGGAGTCACCTAGTGCAG	14000 fluorescence intensity (a.u.)
AAGTCTAGAACAATTAATCAAATAAATTGTGTAGTGCTGACGGAGTCACCTAGTGCAG	11700 fluorescence intensity (a.u.)
GAGTGAATGGATGCAAATTAACAGACAAATTAACAGAGAGCGGAGTCACCTAGTGCAG	18000 fluorescence intensity (a.u.)
CCAAACAAACAAACAAACAATAATGCCAATCAAACCTCACCGGAGTCACCTAGTGCAG	5050 fluorescence intensity (a.u.)
TTAAGATAGAGGAAACATTGATTGTATGCATGCTATATATCGGAGTCACCTAGTGCAG	3750 fluorescence intensity (a.u.)
GGGTTTAGGTTGATTGCCCTTCCCTTGCACGCAAAGATGCCGGAGTCACCTAGTGCAG	10200 fluorescence intensity (a.u.)
AGTATTAATTATGATTGTTGATCGAATTCGTCAATGGCAACGGAGTCACCTAGTGCAG	39800 fluorescence intensity (a.u.)
TAGTGATTAGCCGAGTCTTGCACAAGATTAGGAGTAGGAACGGAGTCACCTAGTGCAG	17200 fluorescence intensity (a.u.)
AAGAATTGATGACCTCAGCCTTCAACGTTACTTGAAATTCCGGAGTCACCTAGTGCAG	6420 fluorescence intensity (a.u.)
AATTAGAATTCAATTAAAATCTAAATAACTCAAAAGGTCGCGGAGTCACCTAGTGCAG	10100 fluorescence intensity (a.u.)
GGCAATTAGTTGCATTAATATAGTAGTTTATAATTGCAAGCGGAGTCACCTAGTGCAG	6660 fluorescence intensity (a.u.)
ACAAGTGATTATATAGTGATAATGCAGTAATGTAGTGGAGCGGAGTCACCTAGTGCAG	14300 fluorescence intensity (a.u.)
TTCTTCTCAATCAGAGTCAACTGACCAACACATAAGCCCACGGAGTCACCTAGTGCAG	11600 fluorescence intensity (a.u.)
ACCAAACAATTGTCCGATTGATCAGCATGCTCTGACCTGACGGAGTCACCTAGTGCAG	6020 fluorescence intensity (a.u.)
TTAAGATAATCTATAATATTAAATTACTAGTGGATAATGACGGAGTCACCTAGTGCAG	4680 fluorescence intensity (a.u.)
GGAGTAGAATTGATAGTGGATAATATTGTAATCAAGGAAACGGAGTCACCTAGTGCAG	4920 fluorescence intensity (a.u.)
AACAGTAGTTCATGGTGGTGATTGGTGAAGGCTGATTGTGCGGAGTCACCTAGTGCAG	3720 fluorescence intensity (a.u.)
CGTCACAAATTAAGGCATCCTTCTCTACGTATCTACACTGCGGAGTCACCTAGTGCAG	4680 fluorescence intensity (a.u.)
GTGAATTAGACTAAAATAGCATTCACCCGTTGTAACGCATCGGAGTCACCTAGTGCAG	6510 fluorescence intensity (a.u.)
CCATATATAATTGAAATTGCTTTTAACTCGTTGCAACGCACGGAGTCACCTAGTGCAG	27100 fluorescence intensity (a.u.)
